According to patent publication US5922554A, “Inhibition of cellular uptake of cholesterol” (The Regents of the University of California, priority 1996, dated 1999):

Test system: fibroblast monolayers
Test: Influx/uptake of ^3 H-FC (free cholesterol) from labeled LDL (or plasma, HDL) into normal fibroblast monolayers
Format: cell-based, human
Conditions: proteinase K pretreatment (10 μg ml^-1, 8-10 min); 4 experiments

B1: proteinase K: proteinase K (final concentration 10 μg ml^-1) (protein, UniProt P06873 106-384, looked up)
Proteinase K: AAQTNAPWGLARISSTSPGTSTYYYDESAGQGSCVYVIDTGIEASHPEFEGRAQMVKTYYYSSRDGNGHGTHCAGTVGSRTYGVAKKTQLFGVKVLDDNGSGQYSTIIAGMDFVASDKNNRNCPKGVVASLSLGGGYSSSVNSAAARLQSSGVMVAVAAGNNNADARNYSPASEPSVCTVGASDRYDRRSSFSNYGSVLDIFGPGTSILSTWIGGSTRSISGTSMATPHVAGLAAYLMTLGKTTAASACRYIADTANKGDLSNIPFGTVNLLAYNNYQA
inhibition of uptake of ^3 H-FC LDL label: 7±6%
